Results published in PubChem BioAssay AID1508642 (National Center for Advancing Translational Sciences (NCATS), 2021).
The whole screen tested about 43,000 compounds, of which about 200 (0.47%) were called active. About 12% were inconclusive and are not listed. Calls follow the shape of the dose curve; as a rule, active = well fitted cell-killing curve with a large enough effect; inconclusive = small, poorly fitted or top-dose-only effect, or effect the other way; inactive = flat fitted curve, though single readings scatter. This is one part of the list.

Assay: Cell viability qHTS assay in S16 Pmp22-F2sN cells; also: nearly all actives have a fitted effect of over 65% in size
Conditions: S16 Pmp22-F2sN Schwann cells (luciferase reporters placed in the Pmp22 gene) viability, CellTiter-Glo, 24 h; series mostly up to 57.5 µM; activity change, negative = cytotoxicity: at the top concentration
Method in brief: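 Seed 500-1,000 S16 Pmp22-F2sN cells per well in phenol-red-free DMEM with 10% heat-inactivated FBS; pin-add 23 nL compound; incubate 24 h at 37C; add CellTiter-Glo, wait 15 min protected from light; read luminescence.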
% is scaled to controls: 0 for no effect and ±100 for the full control effect.

SMILES	activity change, negative = cytotoxicity
CCSc1nnc2n(-c3cccc(C)c3)c(=O)c3c4c(sc3n12)CCCC4	inactive: -7.89%
COc1ccc(CCC(=O)N2CCc3c([nH]c4ccccc34)C2c2ccc(F)cc2)cc1 (stereo unspecified)	inactive: -6.01%
Cc1ccc2onc(CNC(=O)N3CCN(c4cccc(C)c4C)CC3)c2c1	inactive: -11.4%
Cc1ccc(NC(=O)Nc2ccc3c(c2)N(C)C(=O)c2ccccc2S3)c(C)c1	inactive: -29.9%
CCOC(=O)c1c(C)[nH]c(C)c1S(=O)(=O)NCC(=O)Nc1cc(C)ccc1OC	inactive: -1.88%
O=C(NCCc1csc2nc(-c3ccccc3F)nn12)c1ccco1	inactive: 10.3%
O=C(NC(=O)c1ccc(F)cc1)Nc1ccc(-c2cc(C(F)(F)F)nn2-c2ccccc2)cc1	inactive: -2.41%
Cc1oc2c(c(C)cc3oc(=O)c(CC(=O)NCCc4ccccc4)c(C)c32)c1C	inactive: -2.63%
CN1C(C(=O)c2ccccc2)=C(OC(=O)c2ccc(Br)cc2)c2ccccc2S1(=O)=O	inactive: -13.4%
Cc1ccc(-c2c(CN3CCN(c4cccc(C(F)(F)F)c4)CC3)csc2C)cc1	inactive: 20.9%
COc1cccc(C2C=C(c3ccc(C)c(C)c3)Nc3nnnn32)c1OC (stereo unspecified)	inactive: -26.8%
COc1ccc(N2CCN(S(=O)(=O)CCNC(=O)C(c3ccccc3)c3ccccc3)CC2)cc1	inactive: -4.43%
CCN1CCN(CCCNC(=O)c2cnn(-c3ccccc3)c2C2CCN(C(=O)OC(C)(C)C)CC2)CC1	inactive: -1.1%
CCOC(=O)c1ccc(Nc2nc3ccccc3nc2NS(=O)(=O)c2ccc(Cl)cc2)cc1	inactive: 14.7%
Cc1cccc(NC(=O)c2c(C)oc3ncn(CC(C)C)c(=O)c23)n1	inactive: -22.2%
CC(=O)N1CCc2cc(S(=O)(=O)CCC(=O)N3CCN(c4cccc(C)c4C)CC3)ccc21	inactive: 5.71%
Cc1sc2ncn(CC(=O)N(C)c3ccc(Br)cc3)c(=O)c2c1S(=O)(=O)N1CCC(C)CC1	inactive: 9.84%
Cc1nc2c(C(=O)NCc3ccccc3)c[nH]n2c(=O)c1Cc1ccccc1Cl	inactive: -13.1%
CCOc1ccc(-c2nnc(Nc3ccc(S(N)(=O)=O)cc3)c3ccccc23)cc1	inactive: 8.16%
Cc1cc(C)c(NC(=O)CSc2nc(=O)[nH]c3c2CCCC3)c(C)c1	inactive: -14.8%
CC(C)(C)c1ccc(OCC(=O)N2CCC(c3nc4ccccc4s3)CC2)cc1	inactive: 8.55%
CCCOC1(C(F)(F)F)NC(=O)N(c2ccc(Cl)cc2)C1=O (stereo unspecified)	inactive: 0.764%
O=C(NCCc1ccccc1)c1cc(-c2ccc(Cl)cc2)on1	inactive: -1.13%
COc1ccc(NC(=O)c2noc3c2CCCC3)cc1Cl	inactive: 0.212%
COC(=O)c1c(NC(=O)CCCOc2cccc(C)c2)sc2c1C(C(=O)OC)CC2 (stereo unspecified)	inactive: 1.25%
CCN(CC)C(=O)Cn1c(=O)n(Cc2ccc(C(=O)NCCc3ccc(OC)c(OC)c3)cc2)c(=O)c2ccccc21	inactive: 14.6%
